The values below come from PubChem BioAssay AID1745853 (National Center for Advancing Translational Sciences (NCATS), 2022).

Values joined by “and” are separate entries in the source; they are usually repeats but may differ in a detail not shown here. Equal values may be shown once. The list shows a part of the results. These are further read-outs of the screen, such as a control signal, another cell line or another target. No call is given for them.

What all share (assay): Primary Screen for Target Class Profiling of Small Molecule Inhibitors of Methyltransferases
The target of test [1] is Glycine N-methyltransferase (Homo sapiens) (UniProt Q14749). The conditions noted are these: purified enzyme, MTase-Glo SAH luminescence; measured here: GNMT inhibition; at 40 µM; stronger effect = lower value. The method in brief:
(§1)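 Each enzyme was reacted with SAM and its substrate, with compounds tested once at 40 uM; SAH formed was read by MTase-Glo luminescence.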

Test [2] concerns the target Guanidinoacetate N-methyltransferase (Homo sapiens) (UniProt Q14353). The conditions noted are these: purified enzyme, MTase-Glo SAH luminescence; measured here: GAMT inhibition; at 40 µM; stronger effect = lower value. In a few lines:
as §1

The target of test [3] is Histamine N-methyltransferase (Homo sapiens) (UniProt P50135). To be noted: purified enzyme, MTase-Glo SAH luminescence; measured here: HNMT inhibition; at 40 µM; stronger effect = lower value. In a few lines:
as §1

Test [4] concerns the target Nicotinamide N-methyltransferase (Homo sapiens) (UniProt P40261). To be noted: purified enzyme, MTase-Glo SAH luminescence; measured here: NNMT inhibition; at 40 µM; stronger effect = lower value. In a few lines:
as §1

In test [5] the target is Phenylethanolamine N-methyltransferase (Homo sapiens) (UniProt P11086). To be noted: purified enzyme, MTase-Glo SAH luminescence; measured here: PNMT inhibition; at 40 µM; stronger effect = lower value. The method in brief: as §1
On the % scale 0 is the no-effect control and ±100 the full control effect.

For the compound `COCCN1CCCCCC(O)c2cc(C(=O)N(C)CCCc3c(C)nn(C)c3C)ccc21` (stereo not given), the activity change, negative = inhibition was -3.38% in test [1]; 1.51% in test [2]; -1.22% in test [3]; -2.58% in test [4]; 0.496% in test [5].

As to `CCC(=O)N(C1CCOCC1)C1CCN(S(=O)(=O)c2ccc(Cl)c(C)c2)CC1`, the activity change, negative = inhibition in test [1] is -0.034%; in test [2], 1.61%; in test [3], 1.63%; in test [4], -1.39%; in test [5] it was 0.741%.

In the case of `CC(C)NC(=O)NCC1Cn2cccc2C(=O)N1Cc1ccccc1` (stereo not given), the activity change, negative = inhibition in test [1] was -3.74%; in test [2] it was -5.33%; in test [3], -2.9%; in test [4], -11.8%; in test [5], -5.08%.

Consider `Cc1nnc2n(-c3cccc(F)c3)c(=O)c3ccc(C(=O)NCc4ccc5c(c4)OCO5)cc3n12`, for which the activity change, negative = inhibition in test [1] is -1.55%; in test [2], 0%; in test [3], 2.86%; in test [4], 6.15%; in test [5], -4.06%.

Turning to `O=c1c2c(nc3cc[nH]n13)CN(S(=O)(=O)c1cccc(C(F)(F)F)c1)CC2`, the activity change, negative = inhibition is -11.5% in test [1]; -14.5% in test [2]; -11% in test [3]; -17.7% in test [4]; -20.3% in test [5].

In the case of `O=C(CCC1CCCC1)NCc1nnc2cc(-c3nc(C4CC4)no3)ccn12`, the activity change, negative = inhibition is -3.76% in test [1]; -0.058% in test [2]; -2.31% in test [3]; -1.12% in test [4]; -4.16% in test [5].

With `CCCn1c(=O)c2ccc(C(=O)NC(C)CC)cc2n2c(=O)n(Cc3ccc(F)cc3Cl)nc12` (stereo not given), the activity change, negative = inhibition in test [1] is -0.909%; in test [2], 0%; in test [3], 4.01%; in test [4] it was -5.17%; in test [5], -0.921%.

Regarding `O=C(Cn1ccc2cc(S(=O)(=O)N3CCCCC3)ccc21)NCCc1cccs1`, the activity change, negative = inhibition in test [1] is -3.94%; in test [2], 1.5%; in test [3], -9.75%; in test [4], -15.5%; in test [5] it was -9.17%.

For `COc1ccc2cc3n(c2c1)CC(C)(C(=O)NCC1CCCO1)N(CC(C)c1ccccc1)C3=O` (stereo not given), the activity change, negative = inhibition in test [1] came to 7.85%; in test [2], 0%; in test [3] it was 9.08%; in test [4], 11.3%; in test [5], 2.74%.

On to `COc1cccc(CNC(=O)c2cc3n(n2)CC(C)(C(=O)NCc2ccc(F)cc2)N(C)C3=O)c1OC` (stereo not given), for which the activity change, negative = inhibition was -7.91% in test [1]; 0% in test [2]; -14.1% in test [3]; -0.344% in test [4]; -7.11% in test [5].

Consider `CC(C)Cn1c(=O)c2ccccc2n2c(CCC(=O)NCc3ccc4c(c3)OCO4)nnc12`, for which the activity change, negative = inhibition in test [1] is -6.69%; in test [2], 1.14%; in test [3], 0.777%; in test [4], -9.22%; in test [5], -4.98%.

In the case of `OC(CC1c2ccccc2-c2cncn21)C1CCCCC1` (stereo not given), the activity change, negative = inhibition is -10.3% in test [1]; -12.4% in test [2]; -6.64% in test [3]; -26.6% in test [4]; -16.9% in test [5].

In the case of `COc1ccccc1CN1C(=O)CSc2c(c3ccccc3n2C)C1C(=O)NCc1ccccc1` (stereo not given), the activity change, negative = inhibition is 3.7% in test [1]; 4.37% in test [2]; 5.68% in test [3]; -0.861% in test [4]; 2.4% in test [5].

Consider `CCCC1=CC2=C(CO1)C(=O)C(C)(O)C(OC(=O)c1c(C)cc(OC)cc1O)C2` (stereo not given), for which the activity change, negative = inhibition is -0.905% in test [1]; 5.69% in test [2]; 3.2% in test [3]; -7.7% in test [4]; 3.42% in test [5].

`COc1ccc(NC(=O)Cn2c(-c3ccc(Cl)cc3)nc(C)cc2=O)cc1OC`: the activity change, negative = inhibition in test [1] is -2.89%; in test [2], -3.87%; in test [3], -1.72%; in test [4], -3.83%; in test [5], -22.3%.

As to `C=C1C(=O)OC2CC(C)=C(C(C)CCCO[C@@H]3O[C@H](CO)[C@@H](O)[C@H](O)[C@H]3O)C(O)C12` (stereo not given in full), the activity change, negative = inhibition in test [1] was 0%; in test [2], 9.12%; in test [3], 9.21%; in test [4], -2.81%; in test [5] it was 7.56%.

As for `CC(C)=CCCC1(C)/C=C/C(OC(=O)C=C(C)C)C(C)(O)/C=C/C(=O)/C(CO)=C\C1` (stereo not given), the activity change, negative = inhibition is -2.31% in test [1]; 1.94% in test [2]; 3.59% in test [3]; -8.6% in test [4]; -8.29% in test [5].

Take `COc1ccc(C[C@H](N)C(=O)N[C@H]2[C@@H](O)[C@H](n3cnc4c(N(C)C)ncnc43)O[C@@H]2CO)cc1`: the activity change, negative = inhibition in test [1] was -3.18%; in test [2], -10.6% and 3.91%; in test [3], 9.51%; in test [4], -11.8% and -7.18%; in test [5] it was 2.36% and 4.67%.

With `COC1CN(c2cccc(F)c2)C12CCN(C(=O)NCC(C)C)CC2` (stereo not given), the activity change, negative = inhibition in test [1] is -3.13%; in test [2], -0.532%; in test [3], -1.45%; in test [4] it was -4.2%; in test [5], -2.54%.

For the compound `CN(C)C(=O)Nc1cc(-c2ccccc2)ccc1N(C)C`, the activity change, negative = inhibition in test [1] is -4.15%; in test [2], 1.89%; in test [3], -2.36%; in test [4], -17.9%; in test [5], -7.58%.

Consider `O=c1c2ccccc2nc(SCc2ccccc2Cl)n1CCN1CCOCC1`, for which the activity change, negative = inhibition is -1.25% in test [1]; 0% in test [2]; -2.49% in test [3]; -15.1% in test [4]; -2.92% in test [5].

As to `CCn1cc(C(=O)N2C[C@@H](COC)[C@H](C(=O)NC)C2)cn1`, the activity change, negative = inhibition in test [1] was -1.03%; in test [2] it was 1.77%; in test [3] it was 2.12%; in test [4], -6.44%; in test [5], -0.546%.

With `COc1cc(O)cc(/C=C/c2ccc(O[C@@H]3O[C@H](CO)[C@@H](O)[C@H](O)[C@H]3O)cc2)c1`, the activity change, negative = inhibition in test [1] was -0.28%; in test [2], -0.571%; in test [3], 5.78%; in test [4], -8.28%; in test [5], 4.95%.

On to `O=C1CCCN1c1ccc(CN2CC(=O)N(Cc3ccccc3F)c3ccccc3S2(=O)=O)cc1`, for which the activity change, negative = inhibition in test [1] is -4.34%; in test [2] it was 0.938%; in test [3], 7.32%; in test [4] it was -5.69%; in test [5], -0.18%.

On to `CC1(C(=O)NCc2ccc(F)cc2)Cn2cnc(C(=O)NCCc3ccccc3)c2C(=O)N1C1CC1` (stereo not given), for which the activity change, negative = inhibition in test [1] was -3.41%; in test [2], 4.73%; in test [3], -0.061%; in test [4], -0.132%; in test [5] it was -3.31%.

Regarding `CCCCN1C(=O)c2cc(C(=O)Nc3cc(OC)cc(OC)c3)nn2CC1(C)C(=O)NC1CCCC1` (stereo not given), the activity change, negative = inhibition is 2.82% in test [1]; 4.87% in test [2]; -6.23% in test [3]; -0.28% in test [4]; 3.4% in test [5].

Take `COc1ccc2c(c1)CC[C@@H](CN(C)CC(=O)O)[C@H]2c1ccccc1`: the activity change, negative = inhibition is 1.76% in test [1]; -6.11% in test [2]; 3.26% in test [3]; -17.3% in test [4]; -3.1% in test [5].

For `COc1c(C(CC(C)C)OC(C)=O)ccc(Oc2c(O)cc(C)cc2/C=C/C(C)=O)c1C(=O)O` (stereo not given), the activity change, negative = inhibition in test [1] is -3.98%; in test [2] it was -4.74%; in test [3] it was -1.72%; in test [4], -17.8%; in test [5], -2.11%.

On to `CN1C(=O)[C@H]2CN(Cc3cn[nH]c3-c3ccc(F)cc3)C[C@H]2C1=O`, for which the activity change, negative = inhibition in test [1] was -6.36%; in test [2] it was 2.71%; in test [3], 1.46%; in test [4] it was -1.59%; in test [5] it was 13.8%.

`CCCCN1C(=O)c2cc(C(=O)Nc3cc(C)ccc3C)nn2CC1(C)C(=O)NC1CCCC1` (stereo not given): the activity change, negative = inhibition in test [1] is 4.97%; in test [2], 0%; in test [3], -3.88%; in test [4] it was 2%; in test [5] it was 3.22%.

Consider `Cc1noc(C)c1C(=O)N1CCN(c2ccc(C=O)cc2)C(=O)C1`, for which the activity change, negative = inhibition was -6.04% in test [1]; -4.12% in test [2]; -2.56% in test [3]; -8.7% in test [4]; -6.8% in test [5].
